# Data reported in article PMC12040169 (PLOS Biology, 2025).
# The other results are listed elsewhere or left out.
# Test system: T1, C. trachomatis L2/434/Bu expressing GFP (CTL2-GFP)
# T1 construct: L2/434/Bu GFP intracellular growth in HeLa cells
# Design: species or system HeLa; C. trachomatis total inclusion area by high-content imaging, normalised to DMSO
# Conditions: total inclusion area; 28.5 h, 10 µM; inhibitor
# Method in brief: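 Following bulk GFP and resorufin fluorescence reads, infected cells were fixed, Hoechst-stained and imaged on a high-content platform. Inclusion total area and number per well served as growth proxies; nuclei counts indicated host viability. MICs were derived as for the fluorescence assay.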
row,SMILES,% of control remaining
1,Cc1noc(C)c1C(=O)N1CCC[C@H](C(=O)c2ccc(F)cc2)C1 [CBK284334],78.1423
2,COc1cc(CN(C)CCc2ccccn2)c([N+](=O)[O-])cc1OC [CBK261737G],107.149
3,COc1ccc(-c2cc(C(=O)NCCc3ccncc3)cnc2-c2cccc(C)c2)cn1 [CBK037489],71.8857
4,CC(C)C(=O)Nc1ccc2c(c1)C(=O)N(CCC(=O)O)C2=O [CBK286544],92.1168
5,O=C(NCc1ccc2c(c1)OCO2)c1ccc2[nH]ccc2c1 [CBK161750],135.136
6,N#Cc1c(-c2ccccc2)cc(-c2ccccc2)nc1SCC(=O)O [CBK131684],91.0451
7,Cc1cc(C)n(CC(O)CN(Cc2ccco2)Cc2cccs2)n1 (stereo not shown) [CBK282979],100.081
8,COc1cccc(-c2cc(C(=O)NCCCN3CCOCC3)c3ccccc3n2)c1 [CBK262630],111.613
9,CCCNCC(=O)N1CN(C(=O)c2ccc(C)cc2)C(C)(C)C1 [CBK089572C],79.3407
10,O=C1CC(NCC2CCCO2)C(=O)N1c1ccc(N2C(=O)CC(NCC3CCCO3)C2=O)cc1 (stereo not shown) [CBK263962],99.8942
11,Cc1c(/C=C2\SC(=S)NC2=O)c2ccccc2n1Cc1ccccc1Cl [CBK263946],99.0224
12,O=C1N[C@H]2CCCN(C(=O)CCN3CCCC3)[C@H]2C/C=C/CCOc2ccccc21 [CBK292162],80.8708
13,COc1ccc(CNc2oc(-c3ccccc3)nc2S(=O)(=O)c2ccccc2)cc1 [CBK267669],78.9586
14,Cc1cc2c(cc3c(=O)n(CC(=O)NC4CCCC4)nc(C)n32)s1 [CBK284072],96.662
15,CN(CC1OCCc2ccccc21)C(=O)CCC1CCCO1 (stereo not shown) [CBK282030],103.999
16,Cc1noc(C)c1S(=O)(=O)Nc1nc(-c2cccnc2)cs1 [CBK067266],102.61
17,O=C1Nc2ccc(S(=O)(=O)NCCCO)c3cccc1c23 [CBK262033],101.556
18,O=C(Nc1snnc1-c1ccc(Cl)cc1)c1ccco1 [CBK153242],85.0095
19,COc1cccc(CNC(=O)c2cn[nH]c2-c2cccc(C)c2)c1 [CBK288056],89.3221
20,Cc1nc(N2CCOCC2)[nH]c(=O)c1CCC(=O)Nc1ccccc1F [CBK305003],109.482

row,SMILES,% of control remaining
1,CN1CCN(CC(=O)Nc2ccc([N+](=O)[O-])cc2C(=O)c2ccccc2)CC1 [CBK265772],117.618
2,O=C(O)CCC(=O)NCCCc1ccccc1 [CBK265465],58.788
3,Cc1ccccc1C(=O)N1CCN(S(=O)(=O)c2sc(C(=O)O)c(C)c2C(=O)O)CC1 [CBK297146],102.14
4,Nc1nc2cccnc2cc1-c1ccsc1 [CBK081214],117.677
5,CC(C)(Oc1ccc(Cl)cc1)C(=O)Nc1ccc(CN2CCOCC2)cc1 [CBK269940],95.2176
6,O=C(Cn1nc(-c2ccco2)ccc1=O)Nc1ccccn1 [CBK287985],124.82
7,O=C(CCN1C(=O)C2C3CCC(C3)C2C1=O)OCC(=O)c1ccc(Cl)c([N+](=O)[O-])c1 (stereo not shown) [CBK264124],102.548
8,COc1ccc(OC)c(CCO)c1 [CBK003033],95.4366
9,O=C1CC(N2CCN(CCc3ccncc3)CC2)C(=O)N1c1ccc(Cl)cc1 (stereo not shown) [CBK270078],85.4067
10,CN1CCN(C(=O)c2ccc(-c3cnc4[nH]c(=O)n(CCN5CCOCC5)c4n3)cc2)CC1 [CBK064800],102.599
11,COc1ncc(-c2ccc(Nc3ccc(N4CCOCC4)cc3)nc2)c(OC)n1 [CBK036988],132.054
12,O=C(Cn1cnnn1)NC1CCCC1 [CBK200372],84.6892
13,Cc1ccc(NC(=O)CN2C(=O)N/C(=C\c3cc(Br)cc(Cl)c3O)C2=O)cc1 [CBK265018],117.445
14,CC(C)[C@H](CO)NC(=O)c1cnc(-c2ccccc2)c(-c2ccncc2)c1 [CBK036691],111.011
15,O=[N+]([O-])c1ccc(CN2CCN(Cc3cccnc3)CC2)cc1 [CBK263161],95.4637
16,CSc1nc(N)nc2sc3c(O)cc(=O)[nH]c3c12 [CBK267457],114.479
17,CCC(CCC(=O)Nc1ccccc1Cl)C(=O)O (stereo not shown) [CBK286767],133.166
18,Nc1ccc(Sc2nccnc2N2CCCC2)cc1 [CBK089520],105.566
19,COc1ccc(OC)c(NC(=O)c2c[nH]c(=O)n(-c3ccc(F)cc3)c2=O)c1 [CBK287552],85.4247
20,Cc1ccc(C(=O)c2cccc(N3C(=O)c4ccc(C(=O)O)cc4C3=O)c2)cc1C [CBK286994],87.1575
